# Test results: the supplement of paper PMC4604168 (melanoma cell lines)
# Some of the results follow. Many values rest on one well or one pass, so single values are uncertain.
# Test system: SkMel28
# Assay: cell count relative to DMSO control; melanoma cells; higher = more viable cells
# Conditions: library dose: standard library concentration; 72 h; first compound 2 µM
# 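Also: cells treated in 1,536-well plates, then fixed and DAPI-stained, with nuclei counted from automated high-throughput microscope images.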
row,Structure (SMILES),cell count
1,C[C@@H](N)c1ccc(C(=O)Nc2ccnc3[nH]ccc23)cc1 + CCCCCCCCc1ccc(CCC(N)(CO)CO)cc1 [fingolimod] (partner dose 10 µM),0.816%
2,Cn1sc(=O)n(Cc2ccccc2)c1=O + C[C@]1(O)C[C@@H](c2nc(-c3ccc4ccc(-c5ccccc5)nc4c3)c3c(N)nccn32)C1 [OSI906] (partner dose 2 µM),80.6%
3,Cn1sc(=O)n(Cc2ccccc2)c1=O + NC(=O)c1ccc(N(C(N)=O)c2c(F)cccc2F)nc1-c1ccc(F)cc1F [VX702] (partner dose 2 µM),83%
4,C[C@@H](N)c1ccc(C(=O)Nc2ccnc3[nH]ccc23)cc1 + Cn1cnc2c(F)c(Nc3ccc(Br)cc3Cl)c(C(=O)NOCCO)cc21 [selumetinib] (partner dose 0.075 µM),55.9%
5,CCCCCCCCCCCCCCCCCCOP(=O)([O-])OC1CC[N+](C)(C)CC1 [Perifosine] + CC(C)C[C@H](NC(=O)[C@H](Cc1ccccc1)NC(=O)c1cnccn1)B(O)O [Bortezomib] (partner dose 0.005 µM),17.8%
6,C[C@@H](N)c1ccc(C(=O)Nc2ccnc3[nH]ccc23)cc1 + CNC(=O)c1cc(Oc2ccc(NC(=O)Nc3ccc(Cl)c(C(F)(F)F)c3)cc2)ccn1 [sorafenib] (partner dose 2 µM),72.5%
7,CCCCCCCCCCCCCCCCCCOP(=O)([O-])OC1CC[N+](C)(C)CC1 [Perifosine] + C[C@]1(O)C[C@@H](c2nc(-c3ccc4ccc(-c5ccccc5)nc4c3)c3c(N)nccn32)C1 [OSI906] (partner dose 2 µM),69.1%
8,CCCCCCCCCCCCCCCCCCOP(=O)([O-])OC1CC[N+](C)(C)CC1 [Perifosine] + NC1(c2ccc(-c3nc4ccn5c(=O)[nH]nc5c4cc3-c3ccccc3)cc2)CCC1 [MK2206] (partner dose 2 µM),61.4%
9,CCCCCCCCCCCCCCCCCCOP(=O)([O-])OC1CC[N+](C)(C)CC1 [Perifosine] + O=c1[nH]nc(Sc2ncc([N+](=O)[O-])s2)n1-c1ccc2c(c1)OCCO2 [BI78D3] (partner dose 1 µM),79.8%
10,C[C@@H](N)c1ccc(C(=O)Nc2ccnc3[nH]ccc23)cc1 + NC1(c2ccc(-c3nc4ccn5c(=O)[nH]nc5c4cc3-c3ccccc3)cc2)CCC1 [MK2206] (partner dose 2 µM),67.4%
11,CCCCCCCCCCCCCCCCCCOP(=O)([O-])OC1CC[N+](C)(C)CC1 [Perifosine] + Cc1cn(-c2cc(NC(=O)c3ccc(C)c(Nc4nccc(-c5cccnc5)n4)c3)cc(C(F)(F)F)c2)cn1 [nilotinib] (partner dose 1 µM),93.9%
12,Cn1sc(=O)n(Cc2ccccc2)c1=O + CN(c1ncccc1CNc1nc(Nc2ccc3c(c2)CC(=O)N3)ncc1C(F)(F)F)S(C)(=O)=O [PF562271] (partner dose 0.4 µM),87.1%
13,C[C@@H](N)c1ccc(C(=O)Nc2ccnc3[nH]ccc23)cc1 + C=C(c1ccc(C(=O)O)cc1)c1cc2c(cc1C)C(C)(C)CCC2(C)C [Bexarotene] (partner dose 10 µM),33.2%
14,CCCCCCCCCCCCCCCCCCOP(=O)([O-])OC1CC[N+](C)(C)CC1 [Perifosine] + Cc1cc(Nc2cc(N3CCN(C)CC3)nc(/C=C/c3ccccc3)n2)n[nH]1 [ENMD2076] (partner dose 0.2 µM),31.3%
15,C[C@@H](N)c1ccc(C(=O)Nc2ccnc3[nH]ccc23)cc1 + CN(NC(=O)CC(=O)NN(C)C(=S)c1ccccc1)C(=S)c1ccccc1 [STA4783] (partner dose 0.03 µM),5.82%
16,Cn1sc(=O)n(Cc2ccccc2)c1=O + COc1cc(Nc2ncc(F)c(Nc3ccc4c(n3)NC(=O)C(C)(C)O4)n2)cc(OC)c1OC [Tamatinib] (partner dose 2 µM),77.3%
17,CCCCCCCCCCCCCCCCCCOP(=O)([O-])OC1CC[N+](C)(C)CC1 [Perifosine] + OCc1c[nH]c2ccccc12 [Indole-3-carbinol] (partner dose 4 µM),96.8%
18,C[C@@H](N)c1ccc(C(=O)Nc2ccnc3[nH]ccc23)cc1 + CS(=O)(=O)CCNCc1ccc(-c2ccc3ncnc(Nc4ccc(OCc5cccc(F)c5)c(Cl)c4)c3c2)o1 [lapatinib] (partner dose 4 µM),62.3%
19,Cn1sc(=O)n(Cc2ccccc2)c1=O + O=C(O)c1ccc(-c2c[nH]c3ncc(-c4ccccc4)cc23)cc1C1CCCC1 [GSK650394] (partner dose 0.8 µM),79.5%
20,Cn1sc(=O)n(Cc2ccccc2)c1=O + Cn1nnc2c(C(N)=O)ncn2c1=O [temozolomide] (partner dose 10 µM),40.2%
